Some of the results follow. The energies were worked out here from pooled read counts, against the library average; single values are noisy.

The experiment concerns the target T1, Pho4 (S. cerevisiae) (UniProt P07270).
T1 sequence: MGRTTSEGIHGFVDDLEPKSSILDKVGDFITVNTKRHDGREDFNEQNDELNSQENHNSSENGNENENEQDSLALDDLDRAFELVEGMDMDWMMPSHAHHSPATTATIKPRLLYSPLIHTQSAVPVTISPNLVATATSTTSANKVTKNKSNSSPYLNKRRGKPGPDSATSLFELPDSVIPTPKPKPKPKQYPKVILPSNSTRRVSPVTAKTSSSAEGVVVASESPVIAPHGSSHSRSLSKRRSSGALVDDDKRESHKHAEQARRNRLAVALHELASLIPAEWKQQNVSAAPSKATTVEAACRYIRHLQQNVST
Description: relative binding free energy (BET-seq); higher = weaker binding. Particulars: reference: library average.
As to AAAGTCACGTGTTGAA, the “relative binding free energy” value is 0.15 kcal/mol.

As to TGCTTCACGTGATGAG, the “relative binding free energy” value worked out at 0.28 kcal/mol.

ATTTACACGTGCAGTT: the “relative binding free energy” value is -0.03 kcal/mol.

In the case of TCTATCACGTGGTTAT, the “relative binding free energy” value is 0.06 kcal/mol.

In the case of GTTGTCACGTGAACAT, the “relative binding free energy” value is 0.4 kcal/mol.

Take GTGGGCACGTGAGTAA: the “relative binding free energy” value came out at 0.06 kcal/mol.

Take TCTGTCACGTGTATCG: the “relative binding free energy” value was 0.11 kcal/mol.

For the sequence TAGTGCACGTGGGCAA, the “relative binding free energy” value is -0.22 kcal/mol.

TCAGTCACGTGGTTAG: the “relative binding free energy” value is -0.13 kcal/mol.

Consider CGTGGCACGTGAAAAG, for which the “relative binding free energy” value was 0.11 kcal/mol.

Consider GTAGTCACGTGATGTC, for which the “relative binding free energy” value is 0.21 kcal/mol.

In the case of AGGTGCACGTGTTAAT, the “relative binding free energy” value is -0.01 kcal/mol.

As to ATAATCACGTGAAGTT, the “relative binding free energy” value amounted to 0.19 kcal/mol.

On to TTATGCACGTGTCGTT, for which the “relative binding free energy” value stood at 0.01 kcal/mol.

Regarding GATTACACGTGATTTA, the “relative binding free energy” value came to 0.38 kcal/mol.

Take AGAATCACGTGGAGTG: the “relative binding free energy” value was found to be 0.04 kcal/mol.

ATGGGCACGTGATAGC: the “relative binding free energy” value was -0.04 kcal/mol.

TCTTTCACGTGAAGGG: the “relative binding free energy” value came to 0.38 kcal/mol.

Turning to GATGACACGTGGGTAT, the “relative binding free energy” value came out at 0.03 kcal/mol.

With GGTCGCACGTGTTGCG, the “relative binding free energy” value was found to be 0.05 kcal/mol.

For GGATGCACGTGCAGAG, the “relative binding free energy” value worked out at 0.1 kcal/mol.

On to GAGGACACGTGCTAGG, for which the “relative binding free energy” value was 0.09 kcal/mol.

In the case of AGGGTCACGTGAGAAG, the “relative binding free energy” value came out at 0.42 kcal/mol.

In the case of TGTGGCACGTGGACGA, the “relative binding free energy” value was -0.24 kcal/mol.

TGTTACACGTGGGCTT: the “relative binding free energy” value was -0.14 kcal/mol.

Consider GGTGACACGTGATAGC, for which the “relative binding free energy” value is 0.2 kcal/mol.

Turning to GTTGTCACGTGATTGG, the “relative binding free energy” value stood at 0.15 kcal/mol.

As to GGTATCACGTGACGGG, the “relative binding free energy” value stood at 0.39 kcal/mol.

For the sequence TATAGCACGTGGTCTA, the “relative binding free energy” value was -0.13 kcal/mol.

In the case of AAATGCACGTGGGGTG, the “relative binding free energy” value is -0.22 kcal/mol.

Regarding TGAATCACGTGCAGGT, the “relative binding free energy” value is 0.15 kcal/mol.

In the case of TTAAACACGTGGGAAT, the “relative binding free energy” value was -0.07 kcal/mol.

As to GATAACACGTGTTGTA, the “relative binding free energy” value was -0.11 kcal/mol.

In the case of GTGGCCACGTGATTTT, the “relative binding free energy” value is 0.21 kcal/mol.

Take TGGCGCACGTGGTAGT: the “relative binding free energy” value is -0.14 kcal/mol.

For the sequence AAAGTCACGTGAGGGT, the “relative binding free energy” value was 0.4 kcal/mol.

In the case of AGAGTCACGTGAACGG, the “relative binding free energy” value was 0.36 kcal/mol.

TGGGACACGTGGACTG: the “relative binding free energy” value is -0.04 kcal/mol.

Consider TTCGGCACGTGTTAGC, for which the “relative binding free energy” value is 0.03 kcal/mol.

With GAGAACACGTGTGGGG, the “relative binding free energy” value came to 0.07 kcal/mol.

For GTATGCACGTGTTTGG, the “relative binding free energy” value was -0.02 kcal/mol.

As to GAACGCACGTGTAGTT, the “relative binding free energy” value was determined as 0.07 kcal/mol.

In the case of TAGTACACGTGTGATG, the “relative binding free energy” value came to 0.14 kcal/mol.

Regarding GTGCTCACGTGTAGGT, the “relative binding free energy” value stood at 0.07 kcal/mol.

For TTTATCACGTGTCCGT, the “relative binding free energy” value stood at 0.09 kcal/mol.

GTGAGCACGTGATGCG: the “relative binding free energy” value was -0.08 kcal/mol.

As for CTTGTCACGTGAGCTT, the “relative binding free energy” value came out at 0.33 kcal/mol.

For the sequence CGTTTCACGTGGGGCT, the “relative binding free energy” value was 0.11 kcal/mol.

GGTCTCACGTGTATTG: the “relative binding free energy” value is 0.19 kcal/mol.

Take ATGTTCACGTGGTGGG: the “relative binding free energy” value stood at 0.2 kcal/mol.

On to CATGACACGTGGTGTG, for which the “relative binding free energy” value was -0.08 kcal/mol.

Take GTGATCACGTGGTTTA: the “relative binding free energy” value is -0.05 kcal/mol.

As to CTGGCCACGTGGTGGA, the “relative binding free energy” value is -0.14 kcal/mol.

TTTTCCACGTGGGTGT: the “relative binding free energy” value was -0.14 kcal/mol.

In the case of ATTTGCACGTGGGAAT, the “relative binding free energy” value was 0.03 kcal/mol.

As for GGGAACACGTGAAGTT, the “relative binding free energy” value worked out at 0.47 kcal/mol.

With AATGACACGTGGTGTC, the “relative binding free energy” value stood at 0.08 kcal/mol.

Take GGGGTCACGTGTCGTT: the “relative binding free energy” value amounted to 0.2 kcal/mol.

Regarding AGTAGCACGTGGTGGC, the “relative binding free energy” value was -0.2 kcal/mol.

As to TGCTACACGTGCGGTT, the “relative binding free energy” value turned out to be 0.13 kcal/mol.

For the sequence TTCTTCACGTGTTGAT, the “relative binding free energy” value stood at 0.18 kcal/mol.

On to GGTTTCACGTGTTCTC, for which the “relative binding free energy” value was 0.31 kcal/mol.

On to ACTGTCACGTGGTCGT, for which the “relative binding free energy” value was found to be 0.05 kcal/mol.

The values above are taken from the BET-seq Pho4 binding data (Le et al. 2018).
